# Measurements from the supplement of paper PMC8728848.
# The list shows a part of the results.
# B1: CPA (Cicer arietinum) (protein)
# chain: MAFSYLNLVLVTLTTLFFLQTTKVKSQKSVSFHITNFTISRPSITLQGTAEFLPNVLLLNDIEHPVFVVGRALYSKPITLWNNKTGKVASFVTSFTFDVQDLKKTVPGHGLVFFLAPSGSEIPFSSDGGNLGVVDGKNAFNRFVGVEFDNFVNSWDPKYSHVGINVNSLISTKTVKWNRVSGELVKVSIVYDSVSTTLTVIVTYKNGQISILSQLVDLKAVLPDTVNIGFSASTTLVSPRQLHNIHSWSFTSTFET
# Key:
# Experiment in all cases: glycan array binding signal (z-score within array); higher = stronger binding
# Conditions in all cases: glycan notation: IUPAC condensed, linker removed
# [1] = target: Fuc(a1-3)[Gal(b1-4)]GlcNAc(b1-3)Gal(b1-4)[Fuc(a1-3)]GlcNAc(b1-3)Gal(b1-4)[Fuc(a1-3)]GlcNAc
# Method in brief: (§1)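 Negative Z-scores can be read as non-binding. The Z-score is calculated within each array and then averaged across arrays of one protein sequence at different concentrations or buffers and across linkers. Arrays, 3228 in all, were curated from the Consortium for Functional Glycomics database and kept only where the protein sequence was available.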
# [2] = target: Fuc(a1-3)[Gal(b1-4)]GlcNAc(b1-3)GalNAc
# Method in brief: as §1
# [3] = target: Fuc(a1-3)[Gal(b1-4)]GlcNAc(b1-6)GalNAc
# Method in brief: as §1
# [4] = target: Fuc(a1-3)[Gal(b1-4)]GlcNAc(b1-6)[Gal(b1-3)GlcNAc(b1-3)]Gal(b1-4)Glc
# Method in brief: as §1
# [5] = target: Fuc(a1-3)[Gal(b1-4)]GlcNAc6S
# Method in brief: as §1
# [6] = target: Fuc(a1-3)[Gal3S(b1-4)]Glc
# Method in brief: as §1
# [7] = target: Fuc(a1-3)[Gal3S(b1-4)]GlcNAc
# Method in brief: as §1
# [8] = target: Fuc(a1-3)[Gal3S(b1-4)]GlcNAc6S
# Method in brief: as §1
# [9] = target: Fuc(a1-3)[GalNAc(b1-4)]GlcNAc
# Method in brief: as §1
# [10] = target: Fuc(a1-3)[GalNAc(b1-4)]GlcNAc6S
# Method in brief: as §1
# Fuc(a1-4)GlcNAc = target: Fuc(a1-4)GlcNAc
# Method in brief: as §1
# Fuc(b1-3)GlcNAc = target: Fuc(b1-3)GlcNAc
# Method in brief: as §1
# Gal(a1-2)Gal = target: Gal(a1-2)Gal
# Method in brief: as §1
# Gal(a1-3)Gal = target: Gal(a1-3)Gal
# Method in brief: as §1
# Gal(a1-3)Gal(b1-3)GlcNAc = target: Gal(a1-3)Gal(b1-3)GlcNAc
# Method in brief: as §1
# [11] = target: Gal(a1-3)Gal(b1-3)GlcNAc(b1-2)Man
# Method in brief: as §1
# [12] = target: Gal(a1-3)Gal(b1-3)GlcNAc(b1-2)Man(a1-3)[Gal(a1-3)Gal(b1-3)GlcNAc(b1-2)Man(a1-6)]Man(b1-4)GlcNAc(b1-4)GlcNAc
# Method in brief: as §1
# [13] = target: Gal(a1-3)Gal(b1-3)GlcNAc(b1-3)GalNAc
# Method in brief: as §1
# [14] = target: Gal(a1-3)Gal(b1-3)GlcNAc(b1-6)GalNAc
# Method in brief: as §1
# [15] = target: Gal(a1-3)Gal(b1-3)[Fuc(a1-4)]GlcNAc(b1-2)Man(a1-3)[Gal(a1-3)Gal(b1-3)[Fuc(a1-4)]GlcNAc(b1-2)Man(a1-6)]Man(b1-4)GlcNAc(b1-4)GlcNAc
# Method in brief: as §1
# Gal(a1-3)Gal(b1-4)Glc = target: Gal(a1-3)Gal(b1-4)Glc
# Method in brief: as §1
# Gal(a1-3)Gal(b1-4)GlcNAc = target: Gal(a1-3)Gal(b1-4)GlcNAc
# Method in brief: as §1
# [16] = target: Gal(a1-3)Gal(b1-4)GlcNAc(b1-2)Man
# Method in brief: as §1
# [17] = target: Gal(a1-3)Gal(b1-4)GlcNAc(b1-2)Man(a1-3)[Gal(a1-3)Gal(b1-4)GlcNAc(b1-2)Man(a1-6)]Man(b1-4)GlcNAc(b1-4)GlcNAc
# Method in brief: as §1
# [18] = target: Gal(a1-3)Gal(b1-4)GlcNAc(b1-3)GalNAc
# Method in brief: as §1
# [19] = target: Gal(a1-3)Gal(b1-4)GlcNAc(b1-6)GalNAc
# Method in brief: as §1
# [20] = target: Gal(a1-3)Gal(b1-4)[Fuc(a1-3)]GlcNAc
# Method in brief: as §1
# [21] = target: Gal(a1-3)Gal(b1-4)[Fuc(a1-3)]GlcNAc(b1-2)Man(a1-3)[Gal(a1-3)Gal(b1-4)[Fuc(a1-3)]GlcNAc(b1-2)Man(a1-6)]Man(b1-4)GlcNAc(b1-4)GlcNAc
# Method in brief: as §1
# Gal(a1-3)GalNAc = target: Gal(a1-3)GalNAc
# Method in brief: as §1
# [22] = target: Gal(a1-3)[Gal(a1-4)]Gal(b1-4)GlcNAc
# Method in brief: as §1
# [23] = target: Gal(a1-4)Gal(b1-3)GlcNAc(b1-2)Man(a1-3)[Gal(a1-4)Gal(b1-3)GlcNAc(b1-2)Man(a1-6)]Man(b1-4)GlcNAc(b1-4)GlcNAc
# Method in brief: as §1
# Gal(a1-4)Gal(b1-4)Glc = target: Gal(a1-4)Gal(b1-4)Glc
# Method in brief: as §1
# Gal(a1-4)Gal(b1-4)GlcNAc = target: Gal(a1-4)Gal(b1-4)GlcNAc
# Method in brief: as §1
# [24] = target: Gal(a1-4)Gal(b1-4)GlcNAc(b1-2)Man(a1-3)[Gal(a1-4)Gal(b1-4)GlcNAc(b1-2)Man(a1-6)]Man(b1-4)GlcNAc(b1-4)GlcNAc
# Method in brief: as §1
# [25] = target: Gal(a1-4)Gal(b1-4)GlcNAc(b1-3)Gal(b1-4)Glc
# Method in brief: as §1
# Gal(a1-4)GlcNAc = target: Gal(a1-4)GlcNAc
# Method in brief: as §1
# Gal(a1-6)Glc = target: Gal(a1-6)Glc
# Method in brief: as §1
# Gal(b1-2)Gal = target: Gal(b1-2)Gal
# Method in brief: as §1
binder,measurement,setting,value
B1,glycan array binding signal (z-score),[1],-0.67
same,glycan array binding signal (z-score),[2],-0.02
same,glycan array binding signal (z-score),[3],0.181
same,glycan array binding signal (z-score),[4],-0.454
same,glycan array binding signal (z-score),[5],0.267
same,glycan array binding signal (z-score),[6],0.28
same,glycan array binding signal (z-score),[7],0.129
same,glycan array binding signal (z-score),[8],0.641
same,glycan array binding signal (z-score),[9],0.399
same,glycan array binding signal (z-score),[10],-0.635
same,glycan array binding signal (z-score),Fuc(a1-4)GlcNAc,-0.386
same,glycan array binding signal (z-score),Fuc(b1-3)GlcNAc,-0.329
same,glycan array binding signal (z-score),Gal(a1-2)Gal,-0.045
same,glycan array binding signal (z-score),Gal(a1-3)Gal,-0.652
same,glycan array binding signal (z-score),Gal(a1-3)Gal(b1-3)GlcNAc,0.134
same,glycan array binding signal (z-score),[11],-0.562
same,glycan array binding signal (z-score),[12],1.36
same,glycan array binding signal (z-score),[13],0.618
same,glycan array binding signal (z-score),[14],-0.42
same,glycan array binding signal (z-score),[15],0.177
same,glycan array binding signal (z-score),Gal(a1-3)Gal(b1-4)Glc,0.092
same,glycan array binding signal (z-score),Gal(a1-3)Gal(b1-4)GlcNAc,-0.497
same,glycan array binding signal (z-score),[16],-0.354
same,glycan array binding signal (z-score),[17],0.169
same,glycan array binding signal (z-score),[18],0.211
same,glycan array binding signal (z-score),[19],-0.23
same,glycan array binding signal (z-score),[20],0.094
same,glycan array binding signal (z-score),[21],0.913
same,glycan array binding signal (z-score),Gal(a1-3)GalNAc,-0.121
same,glycan array binding signal (z-score),[22],2.44
same,glycan array binding signal (z-score),[23],-0.307
same,glycan array binding signal (z-score),Gal(a1-4)Gal(b1-4)Glc,0.019
same,glycan array binding signal (z-score),Gal(a1-4)Gal(b1-4)GlcNAc,0.774
same,glycan array binding signal (z-score),[24],-0.333
same,glycan array binding signal (z-score),[25],-0.689
same,glycan array binding signal (z-score),Gal(a1-4)GlcNAc,-0.019
same,glycan array binding signal (z-score),Gal(a1-6)Glc,-0.457
same,glycan array binding signal (z-score),Gal(b1-2)Gal,-0.481
